The other results are listed elsewhere or left out. The list includes weakly bound sequences.

The experiment deals with MaxL homodimer (UniProt P61244). The experiment in a line: universal protein-binding microarray (PBM). Conditions: PBS-based mixture, 10 nM His-tagged protein dimer, 2% milk, 200 ng/uL BSA, 50 ng/uL salmon testes DNA, 0.02% TX-100; detection with Alexa 488 anti-His …; high values mean tight binding; most listed sequences are background and not binding sites; double strand, one strand shown.
UniProt P61244, sequence (P61244 whole entry): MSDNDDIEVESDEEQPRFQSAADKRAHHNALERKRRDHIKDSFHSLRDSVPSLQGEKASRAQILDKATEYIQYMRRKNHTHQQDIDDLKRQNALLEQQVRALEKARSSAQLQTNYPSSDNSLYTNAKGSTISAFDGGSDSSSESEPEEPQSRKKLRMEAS
In the case of ACGGCTTA, the binding signal (normalized occupancy) was 0.0706.

Regarding CTGAGTCA, the binding signal (normalized occupancy) is 0.076.

In the case of AGCTTCAT, the binding signal (normalized occupancy) worked out at 0.0774.

Consider CCGCCGGA, for which the binding signal (normalized occupancy) is 0.0684.

For GGAGTGCA, the binding signal (normalized occupancy) was found to be 0.0787.

On to CCTCGAGG, for which the binding signal (normalized occupancy) came out at 0.0864.

As for AGAGCTGG, the binding signal (normalized occupancy) was 0.0694.

For CATCTGGG, the binding signal (normalized occupancy) is 0.0809.

Turning to AATATGCC, the binding signal (normalized occupancy) amounted to 0.0803.

CGATCAAG: the binding signal (normalized occupancy) turned out to be 0.0698.

As to GCAGATGC, the binding signal (normalized occupancy) turned out to be 0.078.

Turning to GCCCAGTA, the binding signal (normalized occupancy) worked out at 0.069.

In the case of CCGTAATA, the binding signal (normalized occupancy) turned out to be 0.0774.

Regarding CATAGCGG, the binding signal (normalized occupancy) came to 0.0744.

In the case of CTTCGCCC, the binding signal (normalized occupancy) worked out at 0.0688.

As to GAGGGGCC, the binding signal (normalized occupancy) turned out to be 0.0703.

AAAGCGTC: the binding signal (normalized occupancy) is 0.0666.

For AGGCCAGG, the binding signal (normalized occupancy) was 0.0673.

Take ACCGCATG: the binding signal (normalized occupancy) amounted to 0.146.

Consider GTCCCCAA, for which the binding signal (normalized occupancy) was 0.0697.

Turning to AGGTTGAA, the binding signal (normalized occupancy) worked out at 0.0675.

Consider GGTAGTTA, for which the binding signal (normalized occupancy) was determined as 0.0798.

Take GCTGGACA: the binding signal (normalized occupancy) was found to be 0.073.

CTATTCGA: the binding signal (normalized occupancy) is 0.0711.

With CCTGGCAC, the binding signal (normalized occupancy) was found to be 0.072.

Take ACTGTTGG: the binding signal (normalized occupancy) amounted to 0.0703.

For the sequence GCGCGCCA, the binding signal (normalized occupancy) worked out at 0.0743.

Turning to CGCGGGAG, the binding signal (normalized occupancy) is 0.0678.

With ATAATGGC, the binding signal (normalized occupancy) was 0.0796.

Turning to GAGTGGGC, the binding signal (normalized occupancy) stood at 0.0768.

With ACAACCCC, the binding signal (normalized occupancy) came to 0.0879.

CAATCAGG: the binding signal (normalized occupancy) stood at 0.0728.

With GGGATGAA, the binding signal (normalized occupancy) is 0.0785.

For CCGCCGAC, the binding signal (normalized occupancy) is 0.0726.

Turning to ATTAATCA, the binding signal (normalized occupancy) worked out at 0.0813.

On to AGAGGAAG, for which the binding signal (normalized occupancy) turned out to be 0.0689.

Take CGAAGCCC: the binding signal (normalized occupancy) turned out to be 0.0666.

As to ACCCAGTG, the binding signal (normalized occupancy) came out at 0.0756.

For the sequence CTCTTTCC, the binding signal (normalized occupancy) is 0.0687.

For the sequence ATACCTAC, the binding signal (normalized occupancy) was determined as 0.0834.

For GAGTTCAC, the binding signal (normalized occupancy) is 0.0734.

In the case of CAAACTGC, the binding signal (normalized occupancy) was 0.0706.

On to CCTCTTTA, for which the binding signal (normalized occupancy) was 0.0728.

Regarding CTGCAGCC, the binding signal (normalized occupancy) was determined as 0.0738.

For GATAATAC, the binding signal (normalized occupancy) was 0.0839.

On to GCGTCCCC, for which the binding signal (normalized occupancy) came out at 0.0712.

As for TGGTTCAA, the binding signal (normalized occupancy) is 0.0757.

For the sequence GCAAGAAA, the binding signal (normalized occupancy) is 0.0745.

For GATACACC, the binding signal (normalized occupancy) is 0.0796.

With AGAGATGC, the binding signal (normalized occupancy) turned out to be 0.0756.

Regarding CCGCTGTC, the binding signal (normalized occupancy) was found to be 0.0692.

In the case of GTCCATCA, the binding signal (normalized occupancy) came to 0.0781.

CACTCCTC: the binding signal (normalized occupancy) was 0.0733.

For the sequence AGGATAGA, the binding signal (normalized occupancy) stood at 0.0803.

On to ACCGGGGG, for which the binding signal (normalized occupancy) was 0.0687.

As for ATCTAAAC, the binding signal (normalized occupancy) came out at 0.0791.

With ATGCATAG, the binding signal (normalized occupancy) was found to be 0.0814.

Regarding AGGTCTCG, the binding signal (normalized occupancy) turned out to be 0.0701.

Turning to CGAGCATC, the binding signal (normalized occupancy) was determined as 0.076.

As to CTGTGTGA, the binding signal (normalized occupancy) was found to be 0.0738.

On to ATCATACA, for which the binding signal (normalized occupancy) came out at 0.0836.

As to ATGTCATC, the binding signal (normalized occupancy) turned out to be 0.0845.

For the sequence AGCTTAAC, the binding signal (normalized occupancy) was 0.0697.

Consider ACGCGACG, for which the binding signal (normalized occupancy) is 0.0869.

Consider CCAATTGC, for which the binding signal (normalized occupancy) stood at 0.071.

On to ATAACCAG, for which the binding signal (normalized occupancy) came out at 0.0789.

ACTGAGGC: the binding signal (normalized occupancy) was determined as 0.0658.

Turning to AGCTCTTA, the binding signal (normalized occupancy) amounted to 0.0717.

With GGTATCAA, the binding signal (normalized occupancy) is 0.0827.

Take AGAAGATC: the binding signal (normalized occupancy) was 0.0742.

With CAAAGTGC, the binding signal (normalized occupancy) is 0.0698.

With ACCATGTG, the binding signal (normalized occupancy) was found to be 0.225.

For ATTGAATG, the binding signal (normalized occupancy) came out at 0.0791.

On to TCCGACGA, for which the binding signal (normalized occupancy) worked out at 0.0734.

Regarding CGGGATAC, the binding signal (normalized occupancy) turned out to be 0.0813.

On to CTGGCGCC, for which the binding signal (normalized occupancy) worked out at 0.0656.

On to AAATCCCC, for which the binding signal (normalized occupancy) was determined as 0.0799.

For the sequence GCGGAGTA, the binding signal (normalized occupancy) was determined as 0.0711.

Regarding CCGTTGGC, the binding signal (normalized occupancy) is 0.0715.

Turning to AGAGACTG, the binding signal (normalized occupancy) was determined as 0.0692.

For the sequence ACCCGGAA, the binding signal (normalized occupancy) came to 0.0708.

For TGATGCCA, the binding signal (normalized occupancy) is 0.081.

With ACTGTAAT, the binding signal (normalized occupancy) was 0.0778.

Regarding GGAATCAC, the binding signal (normalized occupancy) is 0.0779.

As for CTAGCAAG, the binding signal (normalized occupancy) came out at 0.0733.

As to GTGTGACA, the binding signal (normalized occupancy) worked out at 0.0905.

As for CCTGACGC, the binding signal (normalized occupancy) is 0.0718.

Take AATTTGTG: the binding signal (normalized occupancy) worked out at 0.0785.

For GCATGGAC, the binding signal (normalized occupancy) stood at 0.0979.

Regarding AAATCTAC, the binding signal (normalized occupancy) was found to be 0.0756.

With ATAATGAG, the binding signal (normalized occupancy) came to 0.0812.

CGAAACGA: the binding signal (normalized occupancy) is 0.0702.

For TGTAAACA, the binding signal (normalized occupancy) amounted to 0.0778.

On to AAAAGGTG, for which the binding signal (normalized occupancy) is 0.0751.

Consider AGCGAAAG, for which the binding signal (normalized occupancy) came to 0.0697.

Regarding ATACGCAT, the binding signal (normalized occupancy) is 0.0968.

Consider ACTTGACG, for which the binding signal (normalized occupancy) came out at 0.0741.

For the sequence CGGGCTCC, the binding signal (normalized occupancy) turned out to be 0.0651.

For the sequence CCTTGCCG, the binding signal (normalized occupancy) worked out at 0.0696.

On to GCGTGTCC, for which the binding signal (normalized occupancy) amounted to 0.0957.

As for GGGAATAC, the binding signal (normalized occupancy) was found to be 0.083.

Consider GCATCGGA, for which the binding signal (normalized occupancy) stood at 0.0717.

Take TCCCGGAA: the binding signal (normalized occupancy) stood at 0.0674.

With AAGCATAA, the binding signal (normalized occupancy) worked out at 0.0767.

As to GCTTGACC, the binding signal (normalized occupancy) was found to be 0.0701.

CCAATGCC: the binding signal (normalized occupancy) was 0.0744.

In the case of AACTGGGG, the binding signal (normalized occupancy) is 0.0722.

Take GCAGCAGA: the binding signal (normalized occupancy) is 0.0667.

Regarding ATGTGTTA, the binding signal (normalized occupancy) is 0.0885.

In the case of CCTTAGAG, the binding signal (normalized occupancy) amounted to 0.0694.

Turning to ATCTGTCG, the binding signal (normalized occupancy) came to 0.0799.

As for CGGTAGCC, the binding signal (normalized occupancy) was determined as 0.0689.

Consider TTATTGAA, for which the binding signal (normalized occupancy) was 0.0832.

CGTAGTTA: the binding signal (normalized occupancy) is 0.0726.

Regarding CAAGGGTA, the binding signal (normalized occupancy) came out at 0.0758.

As for TACAAACA, the binding signal (normalized occupancy) was 0.0741.

With GTGTGATA, the binding signal (normalized occupancy) is 0.0856.

Consider CCAGGTCG, for which the binding signal (normalized occupancy) is 0.0731.

As for AGACTCTA, the binding signal (normalized occupancy) came out at 0.0706.

In the case of CAGCAAGA, the binding signal (normalized occupancy) stood at 0.0751.

With CTTAAGCA, the binding signal (normalized occupancy) came out at 0.077.

Take AGAGCTGA: the binding signal (normalized occupancy) worked out at 0.0686.

As for TACCTCTA, the binding signal (normalized occupancy) came out at 0.0744.

With CGAATCAG, the binding signal (normalized occupancy) came to 0.0747.

As for ATTGTTAA, the binding signal (normalized occupancy) came out at 0.0765.

As for AGAAGTCC, the binding signal (normalized occupancy) came to 0.0733.

In the case of CACTAACG, the binding signal (normalized occupancy) was determined as 0.0797.

Take AGAGCCGG: the binding signal (normalized occupancy) came to 0.0642.

For TGCAGAAA, the binding signal (normalized occupancy) was 0.0784.

As for GGGTGATA, the binding signal (normalized occupancy) is 0.0823.

Take ATCACTGC: the binding signal (normalized occupancy) amounted to 0.0733.

On to AGTATCCG, for which the binding signal (normalized occupancy) came out at 0.072.

Regarding ATACACCG, the binding signal (normalized occupancy) turned out to be 0.0799.

For the sequence CGGGTTAG, the binding signal (normalized occupancy) was 0.0773.

With AAGTAAGC, the binding signal (normalized occupancy) was 0.0754.

For the sequence AACGCAGA, the binding signal (normalized occupancy) came out at 0.0731.

In the case of CGAACTCC, the binding signal (normalized occupancy) came to 0.076.

Regarding CTACGAGA, the binding signal (normalized occupancy) is 0.0744.

Turning to AGCTTGTC, the binding signal (normalized occupancy) is 0.0735.

With AGCCAGCC, the binding signal (normalized occupancy) was found to be 0.0664.

Take GGATCGGA: the binding signal (normalized occupancy) was 0.0725.

AACTATTC: the binding signal (normalized occupancy) was 0.0763.

With ATCTGTGG, the binding signal (normalized occupancy) stood at 0.0811.

As for CAGGGGAC, the binding signal (normalized occupancy) stood at 0.0712.

With GTAACCAA, the binding signal (normalized occupancy) turned out to be 0.0733.

With AACCTACT, the binding signal (normalized occupancy) amounted to 0.074.

As to GTTTAAAC, the binding signal (normalized occupancy) turned out to be 0.0701.

In the case of ACCTTACA, the binding signal (normalized occupancy) is 0.0736.

Take ATTTTTAA: the binding signal (normalized occupancy) is 0.0726.

CCTCCGCC: the binding signal (normalized occupancy) came to 0.07.

Turning to CAGCCTGC, the binding signal (normalized occupancy) is 0.0703.

As to ACGGGCAC, the binding signal (normalized occupancy) worked out at 0.0709.

As to CGCTCTCA, the binding signal (normalized occupancy) came to 0.0761.

Regarding CTGGTCTA, the binding signal (normalized occupancy) amounted to 0.0727.

Regarding CCATCTAA, the binding signal (normalized occupancy) came to 0.0754.

Turning to CTATCCGA, the binding signal (normalized occupancy) was determined as 0.0775.

For ATCTGTAC, the binding signal (normalized occupancy) worked out at 0.0797.

Take CACAAACC: the binding signal (normalized occupancy) is 0.0835.

In the case of AGTGATGG, the binding signal (normalized occupancy) is 0.0766.

In the case of TCTTGCCA, the binding signal (normalized occupancy) worked out at 0.071.

Turning to TTCACCAA, the binding signal (normalized occupancy) amounted to 0.0806.

For the sequence ATAGTACG, the binding signal (normalized occupancy) was 0.0789.

In the case of CTAGCCAC, the binding signal (normalized occupancy) turned out to be 0.0792.

For CGTTGTGA, the binding signal (normalized occupancy) was 0.0761.

With CTGCGAAC, the binding signal (normalized occupancy) was 0.0721.

As for CCTGAGCG, the binding signal (normalized occupancy) came to 0.0705.

For TGCATGCA, the binding signal (normalized occupancy) came to 0.1.

In the case of AGTGCATC, the binding signal (normalized occupancy) was determined as 0.0772.

Regarding ACGTCAGG, the binding signal (normalized occupancy) was found to be 0.0736.

For the sequence ACCGCCTA, the binding signal (normalized occupancy) amounted to 0.0644.

Consider AGGTGGTA, for which the binding signal (normalized occupancy) is 0.0821.

Consider CGCCTAGC, for which the binding signal (normalized occupancy) stood at 0.0653.

Values taken from article PMC4242493.
